Source: PubChem BioAssay AID485344 (National Center for Advancing Translational Sciences (NCATS), 2010)
Where “and” joins values, the source holds several entries; their conditions need not be identical. Equal values may be shown once. Out of some 340,000 compounds screened, about 6,900 (2%) were called active. Rule as the data show it: active = inhibition above about 30%; inactive = below that, where a call was filed. The entries are a selection whose mix differs from that of the whole data set. Where no call is shown, the source filed none.

molecular target: D(2) dopamine receptor (Homo sapiens) (UniProt P14416); experiment: HTS Assay for Allosteric Antagonists of the Human D2 Dopamine Receptor: Primary Screen for Antagonists; conditions: HEK293 TREx D2 cells, calcium flux, dopamine EC80; at 10 µM; stronger effect = higher value; also: 0% is about no effect
Outline: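 Inhibition of EC80 dopamine-driven calcium flux, recorded kinetically, defines activity here; cells are a tetracycline-induced HEK293 T-REx line expressing force-coupled D2.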

Sequence of UniProt P14416 (P14416 whole entry, looked up): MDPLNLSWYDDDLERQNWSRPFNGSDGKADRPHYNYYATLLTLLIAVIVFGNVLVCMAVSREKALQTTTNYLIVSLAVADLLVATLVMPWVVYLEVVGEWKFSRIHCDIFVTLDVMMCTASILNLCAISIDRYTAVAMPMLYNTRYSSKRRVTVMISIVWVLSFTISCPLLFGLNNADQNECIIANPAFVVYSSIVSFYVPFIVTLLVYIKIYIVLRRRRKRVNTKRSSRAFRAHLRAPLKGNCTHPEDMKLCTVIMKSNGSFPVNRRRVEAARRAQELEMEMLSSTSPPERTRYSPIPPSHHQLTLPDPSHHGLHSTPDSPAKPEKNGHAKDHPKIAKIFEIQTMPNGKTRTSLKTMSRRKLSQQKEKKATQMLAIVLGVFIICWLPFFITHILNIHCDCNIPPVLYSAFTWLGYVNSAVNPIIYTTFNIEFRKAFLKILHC

`Brc1ccc(CN2CCN(c3ccccc3)CC2)o1` was tested, and the inhibition was active: 50.5%.
With `COc1ccc2nc(SCC(=O)N3CCNC3=O)[nH]c2c1` the inhibition was active: 43.9%.
For `Cn1c(CCC(N)=O)nnc1SCC(=O)Nc1ccccc1C(=O)NC1CC1`, the inhibition was active: 31.4%.
In the case of `COc1ccc(OCC(O)CNC(=O)Nc2cc(C)cc(C)c2)cc1` (stereo unspecified), the inhibition is reported as active: 30.1%.
In the case of `COc1ccc(OC)c(CN2CCN(Cc3cc(=O)oc4cc(O)ccc34)CC2)c1`, the inhibition is reported as active: 33.7%.
For `CCC(NC(=O)C1CCC1)c1ccc(C)cc1` (stereo unspecified), the inhibition was active: 36.7%.
`CC(C(O)c1ccc(O)cc1)N1CCC(Cc2ccccc2)CC1` (stereo unspecified) was tested, and the inhibition was active: 48.5% and active: 77.2%.
In the case of `CCn1c(SCC(=O)Nc2nccs2)nnc1-c1ccco1`, the inhibition is reported as active: 83%.
`O=C(Nc1nnc(-c2ccccc2F)s1)C1CCCO1` (stereo unspecified) was tested, and the inhibition was active: 39.7%.
For `COc1ccc2c(c1)CCC/C2=N\NC(=O)c1ccoc1C`, the inhibition was active: 37.7%.

Compared with `COc1ccc(CNC(=O)c2cnc3cc(C)ccn3c2=O)cc1`, `Cc1ccc(CNC(=O)c2cn(C)c3ccc(S(=O)(=O)N4CCOCC4)cc3c2=O)cc1` is lower in inhibition: 3.42% for the first, 0.364% for the second.

Going from `CC(C)c1cnc2c(c1SCC(=O)NCc1ccccc1)c(=O)n(C)c(=O)n2C` to `COC(=O)c1ccc(NC(=O)CCc2c(C)nc3c(c2C)c(=O)n(C)c(=O)n3C)cc1`, the inhibition rises from 0.32% to 2.38%.

First: CN(Cc1ccccc1)C(=O)CSc1nc2ccccc2n1Cc1ccccc1F
Second: Cc1ccccc1NC(=O)CSc1nc2ccccc2c2nc(CCn3c(C)nc4ccccc43)nn12
The inhibition of the first is higher: 14.6% for the first, 10.1% for the second.

First: Cc1ccccc1NC(=O)CSc1nc(=O)n(CCN2CCOCC2)c2c1CCC2
Second: CCc1ccccc1NC(=O)c1cnc2sc(N3CCOCC3)nn2c1=O
The inhibition of the first is lower: -1.05% for the first, 12% for the second.

Compared with `Cc1sc2c(c1C)c(=O)n(-c1cccc(C(F)(F)F)c1)c(=O)n2Cc1ccc(F)cc1`, `Cc1ccc(S(=O)(=O)c2cn(Cc3ccc(F)cc3)c3cc(F)c(F)cc3c2=O)cc1` is lower in inhibition: 6.3% for the first, -6.34% for the second.

Going from `COc1ccccc1Cc1nc2ccccc2nc1SCC(=O)Nc1cccc(Cl)c1C` to `Clc1ccccc1CNc1nc2ccccc2c2nc(-c3cccnc3)nn12`, the inhibition falls from 19.5% to -2.08%.

Going from `Cc1ccc(-c2nc3ccc(Cl)cn3c2Nc2ccccc2C)s1` to `CC1=C(C(=O)Nc2cccnc2)C(c2ccc(Cl)cc2)n2nc(SCc3ccccc3)nc2N1` (stereo unspecified), the inhibition rises from 2.13% to 2.35%.

Compared with `C=CCc1ccccc1OCC(O)CN1CCN(c2ccccc2)CC1` (stereo unspecified), `O=C(Cn1ncc2ccsc2c1=O)N1CCN(c2ccccc2)CC1` is lower in inhibition: 11.1% for the first, 3.07% for the second.

First: COc1ccccc1C(=O)Nc1ccc2c(c1)nc(CN1CCCCC1)n2C
Second: COc1ccccc1N1CCN(C(=O)c2cc3c(=O)oc4ccc(C)cc4c3s2)CC1
The inhibition of the first is lower: 4.03% for the first, 8.33% for the second.

Going from `Cc1cc(C)n2nc(SCC(=O)Nc3cccc(C(F)(F)F)c3)nc2n1` to `CCN(C(=O)Cn1c(=O)oc2cc(Cl)ccc21)c1cccc(C(F)(F)F)c1`, the inhibition falls from 3.36% to -20.2%.

First: CCn1c(=O)n(CC)c2cc(N3CCCCC3)c(NC(=O)Nc3ccccc3C(F)(F)F)cc21
Second: Cc1ccccc1NC(=O)c1c(NC(=O)C(F)(F)F)sc2c1CCCCC2
The inhibition of the first is higher: 1.91% for the first, -1.8% for the second.

Going from `COc1ccc(C(CC(=O)NCc2ccccc2)N2Cc3ccccc3C2=O)cc1` (stereo unspecified) to `CCOc1ccc(NC(=O)[C@H](Cc2ccccc2)N2Cc3ccccc3C2=O)cc1`, the inhibition falls from 9.9% to 3.19%.

First: CCC(Oc1ccc(F)cc1)C(=O)Nc1nc(-c2ccc(F)cc2)ns1 (stereo unspecified)
Second: CC(C)COc1ccc(-c2nonc2NC(=O)c2ccc(F)cc2)cc1
The inhibition of the first is higher: -6% for the first, -6.4% for the second.

Going from `CCOC(=O)c1ccc(NC(=O)CC2C(=O)N(c3cccc(OC)c3)C(=O)N2Cc2ccc(OC)cc2)cc1` (stereo unspecified) to `COc1ccc(NCc2cc3ccc(OC)cc3n(CC(=O)Nc3cccc(OC)c3)c2=O)cc1`, the inhibition rises from -3.2% to 8.25%.

Going from `COc1ccccc1N1CCN(C(=O)CCNS(=O)(=O)c2ccc3c(c2)CCN3C(=O)C2CC2)CC1` to `COc1ccc(NC(=O)C2CCCN(S(=O)(=O)c3ccc4c(c3)CCCC(=O)N4)C2)c(OC)c1` (stereo unspecified), the inhibition falls from 7.07% to 1.51%.

First: COc1ccc(Cl)cc1NC(=O)CSC1=Nc2ccccc2C2=NC(CC(=O)NCc3ccc4c(c3)OCO4)C(=O)N12 (stereo unspecified)
Second: O=C(CC1N=C2c3ccccc3N=C(SCc3ccccc3Cl)N2C1=O)NCc1cccs1 (stereo unspecified)
The inhibition of the first is lower: -18.5% for the first, -4.85% for the second.

Compared with `Cc1ccc(NC(=O)c2cnc(SCC(=O)Nc3cc(C)on3)n(C)c2=O)cc1`, `Cc1ccc(-n2ncc(C(=O)Nc3ccc4c(c3)OCO4)c2C2CCN(C(=O)OC(C)(C)C)CC2)cc1` is lower in inhibition: 21.2% for the first, 11% for the second.

First: Cc1ccc(CNC(=O)Cn2cc(S(=O)(=O)Cc3ccccc3F)c3ccccc32)cc1
Second: CCN(CC)c1cc2c(cc1F)c(=O)c(S(=O)(=O)c1ccc(C)cc1)cn2Cc1ccc(F)cc1
The inhibition of the first is higher: 4.1% for the first, -6.01% for the second.

Going from `O=C(Cn1nnc(-c2ccc(Cl)cc2)n1)NCc1ccc(F)cc1` to `O=C(NCCc1ccc(Cl)cc1)c1nc(-c2cccc(F)c2)n2c1CCCCC2`, the inhibition rises from 2.71% to 23.8%.

Compared with `COc1ccc(OC)c(CNS(=O)(=O)c2c(C(=O)N3CCCCCC3)c(C)n(C)c2C)c1`, `Cc1ccc(NC(=O)CN2C(=O)c3ccccc3Sc3ccc(C(=O)N4CCCC4)cc32)cc1` is lower in inhibition: 14.2% for the first, -9.01% for the second.

First: O=S(=O)(c1ccc(Br)cc1)c1nc(-c2cccs2)oc1SCc1ccccc1F
Second: CN(C(=O)c1ccc2c(c1)N(Cc1ccccc1F)C(=O)c1ccccc1S2(=O)=O)C1CCCCC1
The inhibition of the first is lower: 8.46% for the first, 12.4% for the second.

Going from `COCCCNC(=O)c1cc(-c2cccnc2)nc2ccc(S(=O)(=O)N3CCC(C)CC3)cc12` to `Cc1nn(S(=O)(=O)c2ccc(F)cc2)c(C)c1S(=O)(=O)N1CCC(C)CC1`, the inhibition rises from 1.97% to 3.74%.

Going from `CN1C(=O)C2(c3ccccc31)N(c1cccc(F)c1)C(=O)CS2(=O)=O` (stereo unspecified) to `O=C(CN1C(=O)CC(c2ccccc2)Sc2ccccc21)Nc1cccc(Cl)c1` (stereo unspecified), the inhibition falls from -9.07% to -13.9%.

First: CCOC(=O)c1cc2c(=O)n3ccccc3nc2n(CC(C)C)c1=NC(=O)c1cc2ccccc2o1
Second: CCc1ccc(N(CC)C(=O)Cn2c(=O)oc3ccccc32)cc1
The inhibition of the first is higher: 10.2% for the first, 3.9% for the second.

First: CCOCCn1ccc2c(OCC(=O)Nc3ccc(OC(F)(F)F)cc3)cccc2c1=O
Second: CCOc1ccc(NC(=O)Cc2ccc(-n3c(C)nc4cccnc43)cc2)cc1
The inhibition of the first is lower: -27% for the first, 4.57% for the second.

Going from `CC(=O)c1cccc(NC(=O)CCS(=O)(=O)c2ccc(Br)s2)c1` to `CC(=O)N1CCC(N(Cc2ccco2)C(=O)Nc2ccc(Br)cc2F)CC1`, the inhibition falls from 5.96% to 5.78%.

First: Cc1ccc(CCNC(=O)C2CCN(c3nnc(-n4cccc4CNc4ccc(C)cc4)s3)CC2)cc1
Second: Cc1ccc(-n2nc(C(=O)Nc3cccc(C#N)c3)c3c4ccccc4n(C)c3c2=O)cc1
The inhibition of the first is lower: 0.604% for the first, 3.06% for the second.

Compared with `Cc1ccc(-c2cnc(NCc3ccc(C(F)(F)F)cc3)n2C)cc1`, `CCOc1ccc(-c2nc(CNC(=O)Nc3ccccc3)c(C)o2)cc1` is higher in inhibition: -27% for the first, 10.1% for the second.

First: COc1ccc(/C=C/C(=O)Nc2nc3n(n2)C(c2ccccc2)C=C(c2ccccc2)N3)cc1 (stereo unspecified)
Second: COc1ccc(NC(=O)C(NC(=O)/C=C\c2ccc3c(c2)OCO3)c2ccc(OC)cc2)cc1 (stereo unspecified)
The inhibition of the first is lower: -7.07% for the first, -1.44% for the second.

First: Cc1nc2scc(C)n2c(=O)c1S(=O)(=O)Nc1ccc(N2CCOCC2)cc1
Second: O=S(=O)(Nc1cccc(-c2ccc(N3CCOCC3)nn2)c1)c1ccccc1C(F)(F)F
The inhibition of the first is higher: 15.4% for the first, -6.04% for the second.

Compared with `Cc1ccnc(NS(=O)(=O)c2cc(-c3cc(C)no3)ccc2C)c1`, `Cc1cc(C)c(/C=C/c2onc(C)c2S(=O)(=O)N2CCC(C(=O)Nc3ccc(Cl)cc3C)CC2)c(C)c1` is lower in inhibition: 2.46% for the first, -17.6% for the second.

First: COc1cccc2cc(C(=O)NCCc3c(C)[nH]c4ccc(Br)cc34)c(=O)oc12
Second: COc1cc(NC(=O)c2nn(-c3ccc(F)cc3)c(=O)n(C)c2=O)cc(OC)c1OC
The inhibition of the first is lower: 11.4% for the first, 19.3% for the second.

Compared with `Cc1cn(S(=O)(=O)c2ccc(F)c(Cl)c2)cn1`, `O=C(Nc1cc(Cl)ccc1Cl)c1cc(S(=O)(=O)N2CCCc3ccccc32)ccc1F` is higher in inhibition: -11.4% for the first, 0.686% for the second.

First: CCn1c(C(=O)N2CCC(C(=O)NCCCOC)CC2)cc2sccc21
Second: CCOC(=O)c1c(C)c(C(=O)NCc2ccc(Cl)cc2)c(C)n1CC
The inhibition of the first is higher: 8.87% for the first, 0.925% for the second.

Compared with `O=C(COCc1cc(-c2cccs2)on1)NCc1cccc(Cl)c1`, `O=C(Cn1ncc2c([nH]c3ccccc32)c1=O)NCc1cccc(Cl)c1` is higher in inhibition: -15.1% for the first, 7.09% for the second.

First: CCC1CCc2nc3sc(C(=O)Nc4ccc(F)c(F)c4)c(N)c3cc2C1 (stereo unspecified)
Second: O=C(Cn1c(=O)n(CCc2ccccc2)c(=O)c2c3c(sc21)CCCC3)Nc1ccc(F)c(F)c1
The inhibition of the first is higher: -0.666% for the first, -18.5% for the second.

Going from `CC(C)c1ccccc1Oc1c(C(F)(F)F)oc2c(CN3CCN(C)CC3)c(O)ccc2c1=O` to `CCN(C(=O)c1nn(-c2ccc(C)cc2)c(=O)c2c1c1ccccc1n2C)c1ccc(F)cc1`, the inhibition falls from -6.82% to -16.6%.

Compared with `Cn1c(-c2ccc(S(=O)(=O)N3CCCC3)cc2)csc1=Nc1ccc(Cl)c(Cl)c1`, `O=C(Nc1nnc(S(=O)(=O)N2CCCC2)s1)c1ccccc1F` is lower in inhibition: 9.55% for the first, -14.5% for the second.

First: CCOc1ccccc1Nc1sc(C(=O)c2ccc(Cl)cc2)c(N)c1C(=O)NCCc1ccccc1
Second: CCN(CC)CCNC(=O)c1[nH]c2ccccc2c1Sc1ccc(Cl)cc1
The inhibition of the first is lower: 10.9% for the first, 27% for the second.

Going from `CCCc1nnc(NC(=O)Cc2coc3ccc(C)cc23)s1` to `CCCN1CCN(c2ncnc3sc(C(=O)Nc4cccc(Cl)c4C)c(C)c23)CC1`, the inhibition rises from -0.986% to 7.33%.

Going from `Cc1cc2n(n1)CCC(=O)N2Cc1ccc(C(=O)Nc2ccc(Br)c(C)c2)cc1` to `Cc1ccc(N2CC(NC(=O)c3ccco3)CC2=O)cc1C` (stereo unspecified), the inhibition falls from 0.674% to -0.526%.

First: COC(=O)c1c(NC(=O)COc2c(C)ccc(C)c2C)sc2c1CCC(C)C2 (stereo unspecified)
Second: Cc1cccc(OCC(=O)N(Cc2ccc(C(C)C)cc2)Cc2ccco2)c1C
The inhibition of the first is higher: -15.3% for the first, -18% for the second.

Compared with `COc1ccc(NC(=O)C(=O)NCC(c2cccnc2)N2CCc3ccccc3C2)cc1` (stereo unspecified), `CCOC(=O)C1CCCN(Cc2cn3c(-c4ccc(Br)cc4)nnc3s2)C1` (stereo unspecified) is lower in inhibition: 0.494% for the first, -7.41% for the second.
